# This sample is rich in variants without activity.
# B1: TPR 5TU (parent)
# chain: GGAUCUUCUCGAUCUAACAAAAAAGACAAAUCUGCCACAAAGCUUGAGAGCAUCUUCGGAUGCAGAGGCGGCAGCCUUCGGUGGCGCGAUAGCGCCAACGUUCUCAACUAUGACACGCAAAACGCGUGCUCCGUUGAAUGGAGUUUAUCAUG
# Variants of: B1
# Assay: polymerase ribozyme fitness, log enrichment relative to wild type (log ratio); higher = more active; in vitro selection for triplet polymerase activity
# How it was run: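 Both subunits of a heterodimeric triplet polymerase ribozyme were given their own mutant library, built by PCR and transcribed. Each library was annealed with a biotinylated primer, the partner subunit and triplets, incubated frozen at −7 °C, and its extended constructs gel-excised, captured on streptavidin beads and amplified by RT-PCR, all in one round done in triplicate. Fitness is the logarithm of genotype enrichment relative to wild-type enrichment, with replicates averaged by inverse-variance weighting. That logarithm is base 2, and Illumina-sequenced genotypes needed ≥10 input reads and ≥1 read per output.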
row,Variant,polymerase ribozyme fitness (log ratio)
1,A60U C85U U148C,-3.17
2,C57A U78G A97G G117A A122G,≤ -4.2
3,C57U C85G A142C A150G,≤ -4.2
4,G59A G84U A98G A115U,-3.58
5,C57A A64C C85A C95U U130A A147U,≤ -4.2
6,G59U C93G A122U U134G,≤ -4.2
7,G59U A98G,0.162
8,G59A A119U,-0.778
9,G59A U78C G88U C96U U109G G140C,≤ -4.2
10,U56G G84A G100U C131A G133A G136C,≤ -4.2
11,C57A A60G C79G,-3.6
12,C57G C95U,-1.18
13,A60G A73G G92U,0.661
14,G58U C129G,-2.47
15,A60G C99U A150C,-4.02
16,C57U C79G C85G A91G A97C A122C,≤ -4.2
17,G59C G81C G84C,≤ -4.2
18,G59C G94A U101G A113C,≤ -4.2
19,A60C C105G,-3.44
20,G59A C87U U101G G136C,-2.91
21,A60G C87U U101A,-0.517
22,G59U G68C G84U C105A G124A G133C A142C,≤ -4.2
23,G59C G88C A91C G124U,≤ -4.2
24,U56C G74U U90A A91U C108G A119C G124C U151G,≤ -4.2

row,Variant,polymerase ribozyme fitness (log ratio)
1,G58U G59A,0.429
2,G59U A60U C79U G81A C105U A107C C118G A150G,≤ -4.2
3,A60G U78G C79U G88A A142G,≤ -4.2
4,G58U C72U C87U C99G G141C,≤ -4.2
5,A60C A66U C76U G84U A91C C105U U144C,≤ -4.2
6,A60G G68U G80C U139A,≤ -4.2
7,G59U U102G,-3.26
8,C57U U61A G81C A107U,≤ -4.2
9,C57A G83U U90A A147C,≤ -4.2
10,G59C A60G C69U,-2.47
11,A60G U139C G141C U144A,-4.04
12,G59U C79G A91C A110U C149G G152U,≤ -4.2
13,C57G C123U U145A,-0.237
14,C57A C85G,-1.75
15,C57U G70A G83C U139G,≤ -4.2
16,C57A A66G G80A C103G U139C U151G,≤ -4.2
17,G58U C93U G140A U151G,≤ -4.2
18,U56C U78G G80A G84C,≤ -4.2
19,U56G C76U A91G A122U C149G,≤ -4.2
20,A60G C76G U78G U82C A142G,≤ -4.2
21,G58C G83U C85G,-3.33
22,A60G G94U A137G U148A,≤ -4.2
23,G58C C63U U102G A106U G126A C132A,≤ -4.2
24,G59C U78C G83A,-0.666

row,Variant,polymerase ribozyme fitness (log ratio)
1,G58U G74C G84A C108A U127C,≤ -4.2
2,G58A C76G U90G A119G,≤ -4.2
3,G58C A98U,-0.459
4,G59U G88A U90G G94A A122G A137G A147C,≤ -4.2
5,C57U C63G G71A G86A C118U,≤ -4.2
6,A60U C99U C118U,-2.07
7,A60U C75A C76U G84A A89G A120U,≤ -4.2
8,G59C A89U A91U U101C U144C,≤ -4.2
9,C57G G84U U109G G136U,-3.84
10,G58A G88U C96U C118A C125A G133A,≤ -4.2
11,A60U C85G C96U C105U,≤ -4.2
12,A60G G71A C95G C96U G128A U148A,≤ -4.2
13,U56A U78A U82C G94C G117C U134G U151C,≤ -4.2
14,G59A G124U C125G G136U U139A U146A,≤ -4.2
15,G59A C93A,-3.22
16,G59A C93G,-3.78
17,A60G C69G G80U G84U A106G U109A G133U G140A A150C,≤ -4.2
18,G59U C96U A142G,-1.66
19,G58U A91U,≤ -4.2
20,A60G U61G C76U U102G A106C A147U,≤ -4.2
21,U56C G68U A121G U148A,≤ -4.2
22,G59U U78G C79A C87U U109G A110U,-3.99
23,U56C G65A G84A A91U,≤ -4.2
24,A60U C79U C99U,≤ -4.2

row,Variant,polymerase ribozyme fitness (log ratio)
1,A60C C93A,-3.64
2,G58C G68A G94U C96G,≤ -4.2
3,G59C G80A C93A,-3.86
4,G59A A73G G86A G117C G126U U135G U144C,≤ -4.2
5,C57G C116A,1.35
6,C57A G84U A89U G92U C118U U151A,≤ -4.2
7,G59C C69A C116G C125U,≤ -4.2
8,C57A U90A A91U A138U,≤ -4.2
9,A60U G71U C87G,≤ -4.2
10,A60C G86C G88A C105G,≤ -4.2
11,G58C U90A C99U,≤ -4.2
12,G58C G80A C95U U127G C149G,≤ -4.2
13,U56G C69A C85G C103G A150C,≤ -4.2
14,A60U C76U G86A G141A,-3.96
15,C57U G59C C95G C108U U148A,≤ -4.2
16,C57U U78G A91G,≤ -4.2
17,G59C C99U A150C,≤ -4.2
18,G59U A89U C95G,-2.27
19,U56G C76A U77C C93G C105A U109G,≤ -4.2
20,C57A G70U G80A G83C C87U C108A,≤ -4.2
21,U56A U77G C123G,≤ -4.2
22,A60G G70A C87U G94U C96U,≤ -4.2
23,G58C C72U U101G,0.371
24,C57U G59A G83C G84U C85A U101G G126A A142C,≤ -4.2

row,Variant,polymerase ribozyme fitness (log ratio)
1,G58C U61A U78A C116U C149U,≤ -4.2
2,G58C A122G A150C,-3.46
3,C57U U130G C131U,-4.19
4,G58A C103A,-1.19
5,U56G C85G,-2.54
6,G59C G68A C96A C105A C125U U130G,≤ -4.2
7,G59C G84A G112U C131A U134C,≤ -4.2
8,U56C C96U,-0.496
9,G59C C99G G141U,-1.13
10,G59C A73U C93G A113G C116G A120U A150C,≤ -4.2
11,U56G C93U A110U,-3.71
12,A60G G68C C85A A106U A122U G128A A147U,≤ -4.2
13,A60U A89G G94A C96U C114U A121G U148G,≤ -4.2
14,C57U C75U,0.237
15,G59A G86A,-2.02
16,C57U C95U,-1.55
17,G58C G152A,-2.01
18,U56G G68U,≤ -4.2
19,C57A C87A G92U C95A A138C,≤ -4.2
20,G59A U78G G88C A150G,≤ -4.2
21,C57G G67U G86U A91G,≤ -4.2
22,G58C C85A U146A,≤ -4.2
23,C57U G94U,-0.85
24,G58C G80C C95G A115G,≤ -4.2

row,Variant,polymerase ribozyme fitness (log ratio)
1,C57G C87U C108A A110U C123A,≤ -4.2
2,A60G C75A U90G C108G U135A A150U,≤ -4.2
3,G59A A147U,1.25
4,C57U G58C A142C,0.768
5,G59C A110G,-3.79
6,A60G G92A C96U A121C,-2.75
7,C57U A91G,-2.92
8,U56A U61C G83U C116U G140U,≤ -4.2
9,C57A U90G,≤ -4.2
10,U56G C85U A91U U135A,≤ -4.2
11,G58U G100U A122U,≤ -4.2
12,U56G G68U G81A G84A A91C U135C,≤ -4.2
13,U56G G84U A97U C99G G133U,≤ -4.2
14,C57G U90C C93U C99A U134C,≤ -4.2
15,G59U G86A C103A,≤ -4.2
16,G58C U82C A89U C108G C114A C118U G140A,≤ -4.2
17,C57A G62U G92A C103U C129A,≤ -4.2
18,G58C C75G G92U C95A A119U U130G,≤ -4.2
19,G58A C76A G80C C85U A89G U90C U101G C149A,≤ -4.2
20,C57A G83C G141A,-0.777
21,G58A G86U,-1.12
22,G58C U61A G74U U77G C79U G80C C87A,≤ -4.2
23,G59A U78G G84U A120G G124U,≤ -4.2
24,C57A U102G,-1.73

row,Variant,polymerase ribozyme fitness (log ratio)
1,G58C A64C C93A A97U U148A,≤ -4.2
2,G59U G88C C116G,-3.85
3,C57U A73C G83U U127C,≤ -4.2
4,C57U A64U C114U,≤ -4.2
5,C57G G58U A137G G143A,-2.87
6,G59C C76U A91C C95A C129A,≤ -4.2
7,C57A G80C C95U C116U,≤ -4.2
8,G59C A60C G84U A106U U130A A150G,≤ -4.2
9,A60U C96U G126U G141C,≤ -4.2
10,C57U G65C C85G,≤ -4.2
11,A60G G71A G141U,≤ -4.2
12,G58U U61A C87A C103G U146C G152A,≤ -4.2
13,C57U G70U G133U U139A G140U,≤ -4.2
14,C57G G86C,-3.04
15,G58A C72A U82A A89G C116G U130G,≤ -4.2
16,G59C G84A,-0.218
17,C57U G92C A97C U145A,0.369
18,G59C C63A G88A G141A,≤ -4.2
19,G58A C116U,0.457
20,A60G A91C C95U A110U C114U C118G A150U,≤ -4.2
21,U56C C75A G88C C99G,≤ -4.2
22,A60G C75G,-2.36
23,C57G A89U A98U,-1.18
